{
  "source": "the supplement of paper PMC11417369",
  "note": "The other results are listed elsewhere or left out.",
  "data": [
    {"test_system": "PfSIP2 AP2 domain 1 (GST-tagged)", "experiment": "gcPBM binding intensity (ln(normalized median fluorescence intensity)); higher = stronger DNA binding", "in_short": "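Plasmodium falciparum DNA-binding domains carrying a GST tag were expressed in E. coli and applied for 1 h, at about 25 μg on average, to an Agilent 4 × 180k array. The array held primer-extended double-stranded 36-bp intergenic genomic probes together with negative controls, and binding took place in 1× PBS with 1% milk, 0.2 mg/ml BSA, 0.5% salmon testes DNA and 0.03% Triton X-100. An Alexa488 anti-GST antibody detected bound protein, and the array was scanned at 488 nm. Binding intensity is taken as the highest Masliner-normalised natural-log median intensity across replicate spots of either probe orientation.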", "values": [
      {"sequence": "TTTTTTTTAATGAGAAGTACGGTCTTTCAATGTCTT [XGTACX_site6773]", "gcPBM binding intensity (ln)": 6.76},
      {"sequence": "CATTAACAAATAAATGCACACATATATATAAATAAT [CACACA_site7892]", "gcPBM binding intensity (ln)": 7.22},
      {"sequence": "AATTTATTAGATAGATGTACATTTTAATAAAAGTAG [XGTACX_site6819]", "gcPBM binding intensity (ln)": 7.19},
      {"sequence": "TAAAAATTAAAACTGGGTACAAATTTATAGATAGCC [XGTACX_site8075]", "gcPBM binding intensity (ln)": 7.06},
      {"sequence": "TCCCCTTAATTTAAAACACACAAACAAATAAGTTAG [CACACA_site5973]", "gcPBM binding intensity (ln)": 6.91},
      {"sequence": "ATATGTTTTTTTTTTTTTTTTTAATTTGTCATAAAT [CACACA_negctrl_site1208]", "gcPBM binding intensity (ln)": 7.02},
      {"sequence": "TCTTTCAATATTAATGCATGTTAATAATAAATTTTA [TGCATGCA_site448]", "gcPBM binding intensity (ln)": 6.89},
      {"sequence": "TGAACAATATATAATAGTACATATTTATTTTTTTCT [XGTACX_site4256]", "gcPBM binding intensity (ln)": 6.72},
      {"sequence": "TAAAGATGAAATATCACACATATATAAATATATAAA [CACACA_site4580]", "gcPBM binding intensity (ln)": 6.69},
      {"sequence": "ATATAAATAAATATATGTACACACACAAATATATAC [XGTACX_site3950]", "gcPBM binding intensity (ln)": 7.22},
      {"sequence": "TCTTTCTTATTTTAATGATATTTATTCATTCCAGTT [CACACA_negctrl_site1679]", "gcPBM binding intensity (ln)": 6.82},
      {"sequence": "ACTTTTACACTTTGATTGCACTACTAAACCAGTTCA", "gcPBM binding intensity (ln)": 8.63},
      {"sequence": "AGAATTATTCTAAAAACACACAATACAAAAGTGCAT [CACACA_site3004]", "gcPBM binding intensity (ln)": 7.58},
      {"sequence": "ATAAAAAAAAATATTTGTACACATATTTATATATTA [XGTACX_site8147]", "gcPBM binding intensity (ln)": 6.98},
      {"sequence": "AAAAAACACGCGCACACACACACACGCGCCCACATA [CACACA_site7106]", "gcPBM binding intensity (ln)": 7.16},
      {"sequence": "AATACTAAAACCCATACACACACATATATATAGTAC [CACACA_site9041]", "gcPBM binding intensity (ln)": 7.32},
      {"sequence": "TAATAATTACAAAGAAGTACATAAAAAAAAATTTAT [XGTACX_site4684]", "gcPBM binding intensity (ln)": 7.06},
      {"sequence": "CTATATATATATTTCAGTACATATTAAGAATATATA [XGTACX_site4860]", "gcPBM binding intensity (ln)": 6.88},
      {"sequence": "TATATAAATATATACACACATACATACATACATATA [CACACA_site3835]", "gcPBM binding intensity (ln)": 7.1},
      {"sequence": "TTCTAATAAATGTGTTGTACACCTTTAGCAACTATT [XGTACX_site3235]", "gcPBM binding intensity (ln)": 7.01},
      {"sequence": "TATATATATTTATGCACACAAAATATATTATATAAT [CACACA_site5955]", "gcPBM binding intensity (ln)": 7.55},
      {"sequence": "AGGAAAAAAGAAAAAACACACATAAATATTTATATA [CACACA_site7446]", "gcPBM binding intensity (ln)": 6.82},
      {"sequence": "TATACATCATTTTTCAACAACAAAAAAAAAAAAAAT [CACACA_negctrl_site1185]", "gcPBM binding intensity (ln)": 7.05},
      {"sequence": "ATATATATAAATACAACACACATGTAATATATAAAT [CACACA_site5766]", "gcPBM binding intensity (ln)": 7.54},
      {"sequence": "ACGTAAAATAGGGACGCATGCACAAATATTTTTAAA [TGCATGCA_site336]", "gcPBM binding intensity (ln)": 7.09}
    ]}
  ]
}
